Results: patent publication EP1331219A1
Counter-ions that a name gives are not always drawn.

Columns and labels:
[1] = system: 3A10A6A2; test: Competition ELISA, cross reactivity with methamphetamine analogs, antibody 3A10A6A2; type: binding, murine; conditions: Met1 = 100
[2] = system: 6H5D1C4; test: Competition ELISA, cross reactivity with methamphetamine analogs, antibody 6H5D1C4; type: binding, murine; conditions: Met1 = 100
[3] = system: murine monoclonal antibody 6H5D1C4 (DASM243-6H5D1C4); test: Competition ELISA on BSA-Met1 coated plates: cross reactivity with methamphetamine analogs; type: binding, mouse
[4] = system: murine monoclonal antibody 3A10A6A2 (DASM243-3A10A6A2); type: binding, mouse
[5] = system: murine monoclonal antibody DASM243-6H5D1C4 (IgG2b), raised against TT-Met1; test: RIA: affinity determination by competition between labeled and unlabeled metabolite; design: species or system mouse; conditions: purified mAb, concentration of unlabeled metabolite which inhibits 50% of the binding between antibody and tracer
[6] = system: murine monoclonal antibody DASM243-A10A6A2 (IgG1), raised against TT-Met1; test: as above; design: species or system mouse; conditions: purified mAb, concentration of unlabeled metabolite which inhibits 50% of the binding between antibody and tracer

CC(N)C(O)c1ccccc1 (stereo not shown) [Nor-ephedrine]
% inhibition as compared with the antigen Met1 [1]: 2%
% inhibition as compared with the antigen Met1 [2]: 1%

C[C@@H](Cc1ccccc1)N(C)CC(=O)O [Hapten 1 (Met1)]
% inhibition as compared with the antigen Met1 [1]: 100%
% inhibition as compared with the antigen Met1 [2]: 100%

CC(N)Cc1ccccc1 (stereo not shown) [Amphetamine]
Cross reactivity, % inhibition as compared with the antigen Met1 [3]: 1%
Cross reactivity, % inhibition as compared with the antigen Met1 [4]: 29%
% inhibition as compared with the antigen Met1 [2]: 1%

CNC(C)Cc1ccccc1 (stereo not shown) [methamphetamine oxalate]
IC50 [5]: 0.0144 µM
IC50 [6]: 0.468 µM

CNC(C)Cc1ccc2c(c1)OCO2 (stereo not shown) [Ecstasy, 3,4-methylenedioxymethamphetamine]
% inhibition as compared with the antigen Met1 [2]: 6%

CSc1ccc(CC(C)N)cc1 (stereo not shown) [4-methylthioamphetamine]
% inhibition as compared with the antigen Met1 [2]: 100%

COc1ccc(CCN)cc1O [3-hydroxy-4-methoxyphenetylalamine]
% inhibition as compared with the antigen Met1 [1]: 2%
% inhibition as compared with the antigen Met1 [2]: 1%

CNC(C)Cc1ccc(OC)cc1 (stereo not shown) [4-methoxymetamphetamine]
% inhibition as compared with the antigen Met1 [1]: 6%
% inhibition as compared with the antigen Met1 [2]: 8%

C[C@@H]([C@@H](O)c1ccccc1)N(C)C [Methyl pseudo ephedrine]
% inhibition as compared with the antigen Met1 [2]: 2%
